Among the data in PubChem BioAssay AID463173 (ICCB-Longwood Screening Facility, Harvard Medical School, 2010) are survival values, retold here.

Screen size: about 52,000 compounds; about 1,700 (3.3%) were called active. Rule as the data show it: active = survival mostly below about 52% (no sharp cut-off); inactive = mostly above about 56%. The list shows a part of the results.

The subject of the experiment is Wild type. Kind of experiment: S. aureus survival, RN4220 and DeltatarO strains – OD600, teichoic acid synthesis inhibitors, primary screen (AID 463173). The conditions noted are these: S. aureus RN4220 wild type/DeltatarO growth, OD600, 18 h, hits give low values, screened at 18.75 µg/mL (by protocol).
Regarding `Fc1ccccc1C(NCCc1ccc(Cl)cc1)c1nnc(-c2ccccc2)o1` (configuration not stated), the survival is active: -1%.

As for `CCCC12CN3CC(CCC)(CN(C1)C3c1ccc(OCc3ccccc3)cc1)C2=O` (configuration not stated), the survival was inactive: 117%.

`Cc1cccc(C)c1NC(=O)CCSc1nc(-c2ccc3c(c2)OCO3)cc(C(F)(F)F)n1`: the survival is inactive: 73%.

As to `O=C(CSc1ncc2c(n1)-c1ccccc1N(Cc1ccc(Cl)cc1)S2(=O)=O)c1ccc(Cl)cc1`, the survival was inactive: 79%.

With `O=C(Cn1nc(-c2ccccc2)ccc1=O)NCC1COCCO1` (configuration not stated), the survival was inactive: 113%.

Regarding `COc1ccccc1NC(=O)CN(C)S(=O)(=O)c1cccc2cccnc12`, the survival was inactive: 117%.

For `Cc1ccc(Nc2ccc(N3CCN(C(=O)c4cccc([N+](=O)[O-])c4)CC3)nn2)cc1`, the survival was inactive: 87%.

In the case of `O=C(COc1ccc(F)cc1)Nc1ccc(OCc2cc(=O)n3ccsc3n2)cc1`, the survival was inactive: 86%.

For the compound `Cc1cccc(NC(=O)c2cccc(N3CCCS3(=O)=O)c2)c1`, the survival was inactive: 83%.

Consider `COc1ccc(NS(=O)(=O)c2cc(-c3onc(C)c3C)ccc2C)c(OC)c1`, for which the survival is inactive: 80%.

In the case of `CCC1CN(C(=O)N2CCC(C(=O)NCCCc3ccccc3)CC2)c2cc(C)ccc2O1` (configuration not stated), the survival was inactive: 79%.

With `Cc1ccc(CNC(=O)CN2Cc3ccccc3C2=O)cc1`, the survival was inactive: 76%.

Turning to `Cc1ccccc1NC(=O)Cn1c(=O)n(CCC(=O)N2CCc3ccccc3C2)c(=O)c2ccccc21`, the survival is inactive: 87%.

As to `COc1ccc(NC(=O)CCS(=O)(=O)c2cc3c(cc2C)NC(=O)CO3)cc1Cl`, the survival was inactive: 116%.

On to `Cc1ccc(C2CC(=O)n3nc(-c4ccc(F)cc4)nc3S2)cc1` (configuration not stated), for which the survival is inactive: 76%.

For the compound `CCOC(=O)c1ccccc1NC(=O)N(Cc1ccc(CC)cc1)Cc1cn[nH]c1-c1ccc(OC)cc1`, the survival was inactive: 81%.

For the compound `Cc1ccc(Cl)cc1NC(=O)c1sc2nc(C)c(C)c(C)c2c1N`, the survival is inactive: 104%.

As to `CCCc1cnc2c(c1SCC(=O)Nc1ccc([N+](=O)[O-])cc1)c(=O)n(C)c(=O)n2C`, the survival was inactive: 87%.

In the case of `COc1ccc(C2c3c(-c4ccccc4)n[nH]c3C(=O)N2c2ccc(C(=O)O)cc2)c(OC)c1` (configuration not stated), the survival was inactive: 82%.

As to `Cc1ccc(NC(=O)Cn2c(=O)n(CCC(=O)N3CCc4ccccc4C3)c(=O)c3ccccc32)c(C)c1`, the survival is inactive: 79%.

In the case of `COc1ccc(-n2nc(C(=O)NCCc3ccc(Cl)cc3)c3c4ccccc4n(C)c3c2=O)cc1`, the survival was inactive: 83%.

Regarding `Cc1ccc(-c2cnc(C3CC3)o2)cc1S(=O)(=O)Nc1cccc(C#N)c1`, the survival is inactive: 124%.

For `COc1cc(NC(=O)Cn2c(-c3ccccc3)cc(C(C)=O)c2C)cc(OC)c1`, the survival was inactive: 92%.

On to `CNc1nc(SCC(=O)OC)nc(N2CCOCC2)n1`, for which the survival is inactive: 105%.

On to `Cc1ccc(-c2c(CN3CCN(c4cccc(C)c4C)CC3)csc2C)cc1`, for which the survival was inactive: 64%.

On to `CN(Cc1ccccc1)C(=O)CSc1c2c(nc3ccc(Cl)cc13)CCCC2`, for which the survival is active: 0%.

Regarding `O=C(c1cccnc1Nc1ccccc1F)N1CCCCC1`, the survival was inactive: 109%.

Consider `Cc1cccc(C)c1NC(=O)CSc1nc(-c2cccs2)cc(C(F)(F)F)n1`, for which the survival is inactive: 83%.

Regarding `CC(C)NC(=O)CCSc1nc(-c2ccc3c(c2)OCO3)cc(C(F)(F)F)n1`, the survival was inactive: 77%.

As for `CC(C)CCn1c(SCc2c(F)cccc2Cl)nc2ccsc2c1=O`, the survival is inactive: 73%.

In the case of `Cc1cn2c(=O)cc(COc3ccc(C(C)(C)C)cc3)nc2s1`, the survival was inactive: 65%.

`COc1ccc(CCN(Cc2nc3ccccc3c(=O)[nH]2)C(=O)c2ccco2)cc1`: the survival was inactive: 81%.

On to `O=C(Nc1ccc(F)c(Cl)c1)C1CCCN(S(=O)(=O)c2cccc3nsnc23)C1` (configuration not stated), for which the survival was inactive: 73%.

In the case of `CCOc1ccccc1N(CC)C(=O)c1ccc2c(=O)n3c(nc2c1)CCCCC3`, the survival is inactive: 123%.

For `Nc1nonc1-c1nc2ccccc2n1CC(=O)Nc1ccccc1C(=O)O`, the survival is inactive: 66%.

Take `CC1=C(C(=O)N2CCCCC2)C(c2ccc(N(C)C)cc2)C2=C(CCCC2=O)N1` (configuration not stated): the survival is inactive: 110%.

With `CN(C)S(=O)(=O)N1CCC(N2CCN(Cc3ccc(F)cc3)C(=O)C2=O)CC1`, the survival was inactive: 132%.

Consider `CCOc1ccc(CCNC(=O)CSCc2nc(-c3cccc(C)c3)oc2C)cc1OCC`, for which the survival was inactive: 80%.

On to `N#Cc1ccccc1Cn1c(SCC(=O)NCc2ccccc2)nc2ccccc21`, for which the survival was inactive: 75%.

On to `CCc1cccc2c(-c3ccccc3)nc(SCC(=O)Nc3ccc(OC)cc3)nc12`, for which the survival is inactive: 98%.

On to `CCOc1ccc2nc(NC(=O)c3nc(SC(C)C)ncc3Cl)sc2c1`, for which the survival was inactive: 71%.

As for `CC1CCN(C(=O)Cn2c(=O)n(-c3ccc(Cl)cc3)c(=O)c3c4c(sc32)CCC4)CC1`, the survival is inactive: 79%.

In the case of `COCCNC(=O)C1CC(=O)N(c2ccc(C)cc2)C1` (configuration not stated), the survival is inactive: 121%.

Consider `O=C(Cn1c(=O)c2cccn2c2ccc(F)cc21)NCc1cccc(Cl)c1`, for which the survival was inactive: 87%.

Take `CCCNS(=O)(=O)c1ccc(OCC(=O)N2CCCCC2)cc1`: the survival is inactive: 123%.

On to `CN(C)S(=O)(=O)c1ccc(C(=O)N(Cc2cccnc2)c2nc3c(F)cc(F)cc3s2)cc1`, for which the survival was inactive: 68%.

On to `CC(C)N(Cc1ccccc1)S(=O)(=O)c1ccc(N2CCCCS2(=O)=O)cc1`, for which the survival is inactive: 77%.

As for `Cc1cc2nn(-c3ccccc3)nc2cc1NC(=O)Cc1ccc(Cl)cc1`, the survival was inactive: 92%.

Regarding `CN(C)S(=O)(=O)N1CCN(Cc2ccccc2)CC1`, the survival is inactive: 102%.

For `CC(=O)N1CCc2c(sc3c2c(=O)n(CCc2ccccc2)c(=O)n3Cc2ccc(F)cc2)C1`, the survival is inactive: 89%.

As for `COc1ccc(-n2ccn(CC(=O)Nc3ccccc3C(F)(F)F)c(=O)c2=O)cc1OC`, the survival was inactive: 87%.

Regarding `CCc1ccc(-n2c(CCC(=O)O)ccc2-c2cccs2)cc1`, the survival was inactive: 64%.

Take `Cc1ccccc1NC(=O)Cn1c(=O)n(CCCCCC(=O)NCc2ccc3c(c2)OCO3)c(=O)c2sccc21`: the survival is inactive: 101%.

Turning to `Cc1c(Cl)cccc1NC(=O)CSc1nc(=O)n(CCN2CCOCC2)c2c1CCC2`, the survival was inactive: 71%.

Regarding `CCOc1ccc(NC(=O)c2sc3nc(-c4ccc(OC)cc4)cn3c2C)cc1`, the survival was inactive: 94%.

Turning to `CC(C)(C)NC(=O)c1cccc(C(=O)NC(C)(C)C)c1`, the survival was inactive: 107%.

In the case of `COc1ccc(-c2nsc(NC(=O)c3ccccc3Br)n2)cc1`, the survival was inactive: 47%.

With `N#CC(C#N)=Cc1cn(CC(=O)Nc2ccccc2)c2ccccc12`, the survival is inactive: 120%.

Take `Cc1ccccc1C1C(C#N)=C(N)NC(S)=C1C#N` (configuration not stated): the survival was inactive: 93%.

With `COc1cc(NC(=O)C2CCCN(S(=O)(=O)c3cn(C)cn3)C2)cc(OC)c1` (configuration not stated), the survival was inactive: 69%.

In the case of `CCOC(=O)c1cc2c(=O)n3ccccc3nc2n(CC(C)C)c1=NC(=O)C(C)Oc1ccccc1` (configuration not stated), the survival was inactive: 141%.

Take `CC(=O)Nc1ccc(NCc2nnc3n2CCCCC3)cc1`: the survival is inactive: 53%.

Take `CCN1CCCC1CNCC(=O)NC1(C)C2CCC(C2)C1(C)C` (configuration not stated): the survival is inactive: 113%.

As to `Cc1ccc(Nc2ccc(N3CCN(C(=O)c4ccc([N+](=O)[O-])cc4Cl)CC3)nn2)cc1`, the survival was inactive: 129%.

As for `CCc1ccccc1NC(=O)CCc1c(C)nc2cc(-c3ccccc3)nn2c1C`, the survival is inactive: 71%.

`CCOc1ccc(NC(=O)CCS(=O)(=O)c2cc3c4c(c2)CCN4C(=O)CC3)cc1`: the survival was inactive: 71%.

For the compound `Cc1nnc(N2CCN(C(=O)Nc3cc(F)ccc3F)CC2)c2nn(-c3ccc(Cl)cc3)c(C)c12`, the survival is inactive: 75%.

Take `CCOc1ccc2[nH]c(=O)c(CN(Cc3ccccc3OC)C(=O)N3CCCC3)cc2c1`: the survival is inactive: 103%.

As to `O=C(Nc1ccccc1)N1CCCC(c2nc(-c3cccs3)no2)C1` (configuration not stated), the survival is inactive: 106%.

For the compound `O=C(NC1CC(=O)N(c2ccc(Cl)cc2)C1)C(=O)c1c[nH]c2ccccc12` (configuration not stated), the survival was inactive: 73%.

On to `CCC(C)(C)n1nnnc1CN(Cc1ccc(Cl)cc1)CC1CCCO1` (configuration not stated), for which the survival was inactive: 136%.

As to `CCN(CC)CCC(=O)N1c2ccccc2CCc2ccc(NC(=O)OC(C)C)cc21`, the survival is inactive: 105%.

In the case of `Cc1cccc(NC(=O)NCCn2c(=O)oc3ccc(C)cc32)c1`, the survival is inactive: 88%.

`COc1cccc(NC(=O)c2sc3nc(N4CCOCC4)c4c(c3c2N)CC(C)(C)OC4)c1`: the survival is inactive: 77%.

Take `Cc1ccc(CNC(=O)CCCn2c(=O)c3ccccc3n(CC(=O)C(C)(C)C)c2=O)cc1`: the survival is inactive: 68%.

In the case of `CCOC(=O)Cn1c(=O)n(CC2CCCO2)c2nc(-c3ccc(OC)cc3OC)nc(C(N)=O)c21` (configuration not stated), the survival is inactive: 64%.

Consider `COc1cc(NC(=O)C(CC(C)C)NS(=O)(=O)c2ccc3c(c2)CCCC(=O)N3)cc(OC)c1` (configuration not stated), for which the survival was inactive: 60%.

With `Cc1oc2c(c1C(=O)NCc1cccc(Br)c1)C1=NCCN1C=N2`, the survival is inactive: 89%.

Regarding `COc1ccccc1N1CCN(C(=O)C2CCN(S(=O)(=O)c3cnc[nH]3)CC2)CC1`, the survival is inactive: 86%.

Regarding `COc1ccc(CNC(=O)c2cc3c(-c4ccccc4F)nn(C)c3s2)c(OC)c1`, the survival is inactive: 126%.

As for `CCOc1ccc(NC(=O)Cn2c(=O)n(-c3ccc(C)cc3)c(=O)c3cc(OC)c(OC)cc32)cc1`, the survival is inactive: 73%.

Consider `COC(=O)C1=C(CN(C)CCc2ccc(OC)c(OC)c2)NC(=O)NC1c1cccc(OC)c1` (configuration not stated), for which the survival is inactive: 91%.

In the case of `COc1ccc(CNC(=O)CN(c2ccc(C)cc2)S(=O)(=O)c2c(C)n[nH]c2C)cc1`, the survival was inactive: 76%.

`O=C(Nc1ccc(Br)cc1)c1ccc2c3c(onc13)-c1ccccc1C2=O`: the survival is inactive: 122%.

Regarding `COc1ccc2oc(=O)c(-c3csc(/C(C#N)=C/c4ccc(F)cc4)n3)cc2c1`, the survival is inactive: 96%.

With `COc1cccc(CNC(=O)CN2C(=O)N(c3cc(C)ccc3C)S(=O)(=O)c3ccccc32)c1OC`, the survival was inactive: 69%.

`COc1cc(C)c(Cl)cc1S(=O)(=O)NCCc1c(C)[nH]c2ccccc12`: the survival was inactive: 73%.
